In patent US5391540A, “Substituted pyridine compounds” (Rohm and Haas Company, priority 1993, dated 1995):
At least one read-out could not be matched to a standard name with certainty. Some compounds share one range, which may span the group rather than tell each member.

Experiments:
Assay in all cases: Post-emergence herbicidal activity (Table C)
Assay type in all cases: in vivo
Pennsylvania Smartweed = settings: Pesw, 11.2 kg/ha, 10-14 days
Source text: (§1) The post-emergent activity is best seen on younger plants treated at the 11/2 to 2 leaf stage. In the tests which follow, larger and more developed plants were used.
(§2) The post-emergent herbicidal activity index used in Table C is as follows:
(§3) Top soil was placed in pans having holes in the bottom and compacted to a depth of 0.95 to 1.27 cm. from the top of the pan. A predetermined number of seeds of each of several dicotyledonous and monocotyledonous annual plant species and/or vegetative propagules for the perennial plant species were placed on the soil and pressed into the soil surface. The seeds and/or vegetative propagules were covered with soil and leveled. The pans were then placed on a bench in the greenhouse and watered as needed for germination and growth. After the plants reached the desired age (two to three weeks), each pan (except the control pans) was moved to a spraying chamber and sprayed by means of an atomizer. The spray solution or suspension contained about 0.4% by volume of an emulsifying agent and a sufficient amount of the candidate chemical to give an application rate of the active ingredient of 11.2 kg/ha while applying a total amount of solution or suspension equivalent to 1870 L/ha. […] The plant identifying codes in Table C are the same as above defined.

Quackgrass = settings: Rhqg, 11.2 kg/ha, 10-14 days
Source text: as §1, §2, §3

Morningglory = settings: Mogl, 11.2 kg/ha, 10-14 days
Source text: as §1, §2, §3

Canada thistle = settings: Cath, 11.2 kg/ha, 10-14 days
Source text: as §1, §2, §3

Yellow Nutsedge = settings: Yens, 11.2 kg/ha, 10-14 days
Source text: as §1, §2, §3

Velvetleaf = settings: Vele, 11.2 kg/ha, 10-14 days
Source text: as §1, §2, §3

Cocklebur = settings: Cobu, 11.2 kg/ha, 10-14 days
Source text: as §1, §2, §3

Rhizome Johnsongrass = settings: Rhjg, 11.2 kg/ha, 10-14 days
Source text: as §1, §2, §3

Common Lambsquarters = settings: Colq, 11.2 kg/ha, 10-14 days
Source text: (§4) In the tests which follow, larger and more developed plants were used.
as §2
as §3, with “atomizer.” for “atomizer. The spray solution or suspension contained about 0.4% by volume of an emulsifying agent and a sufficient amount of the candidate chemical to give an application rate of the active ingredient of 11.2 kg/ha while applying a total amount of solution or suspension equivalent to 1870 L/ha.”

Downy Brome = settings: Dobr, 11.2 kg/ha, 10-14 days
Source text: as §1, §2, §3

Barnyardgrass = settings: Bygr, 11.2 kg/ha, 10-14 days
Source text: as §4, §2
as §3, with “atomizer.” for “atomizer. The spray solution or suspension contained about 0.4% by volume of an emulsifying agent and a sufficient amount of the candidate chemical to give an application rate of the active ingredient of 11.2 kg/ha while applying a total amount of solution or suspension equivalent to 1870 L/ha.”

Structure (SMILES)	post-emergent herbicidal activity index (Pennsylvania Smartweed)	post-emergent herbicidal activity index (Quackgrass)	post-emergent herbicidal activity index (Morningglory)	post-emergent herbicidal activity index (Canada thistle)	post-emergent herbicidal activity index (Yellow Nutsedge)	post-emergent herbicidal activity index (Velvetleaf)	post-emergent herbicidal activity index (Cocklebur)	post-emergent herbicidal activity index (Rhizome Johnsongrass)	post-emergent herbicidal activity index (Common Lambsquarters)	post-emergent herbicidal activity index (Downy Brome)	post-emergent herbicidal activity index (Barnyardgrass)
COC(=O)c1c(C(F)(F)F)nc(OC)c(C#N)c1CC(C)C [Compound 20, 3-pyridinecarboxylic acid, 5-cyano-6-methoxy-4-(2-methylpropyl)-2-(trifluoromethyl)-, methyl ester]	0 (0-24% inhibition)	0 (0-24% inhibition)	0 (0-24% inhibition)	0 (0-24% inhibition)	0 (0-24% inhibition)	0 (0-24% inhibition)	0 (0-24% inhibition)	0 (0-24% inhibition)	0 (0-24% inhibition)	–	–
CCOC(=O)c1c(OC)nc(C(F)(F)Cl)c(C(=O)OC)c1CC(C)C [Compound 29, 3,5-pyridinedicarboxylic acid, 2-(chlorodifluoromethyl)-6-methoxy-4-(2-methylpropyl)-, 5-ethyl 3-methyl ester]	1 (25-49% inhibition)	0 (0-24% inhibition)	1 (25-49% inhibition)	0 (0-24% inhibition)	0 (0-24% inhibition)	0 (0-24% inhibition)	1 (25-49% inhibition)	0 (0-24% inhibition)	1 (25-49% inhibition)	0 (0-24% inhibition)	–
CCOC(=O)c1c(OC(C)C)nc(C(F)(F)F)c(C(=O)OC)c1CC(C)C [Compound 5, 3,5-pyridinedicarboxylic acid, 2-(1-methylethoxy)-4-(2-methylpropyl)-6-(trifluoromethyl)-, 3-ethyl 5-methyl ester]	0 (0-24% inhibition)	0 (0-24% inhibition)	0 (0-24% inhibition)	0 (0-24% inhibition)	0 (0-24% inhibition)	0 (0-24% inhibition)	1 (25-49% inhibition)	0 (0-24% inhibition)	0 (0-24% inhibition)	–	0 (0-24% inhibition)
C#CCOc1nc(C(F)(F)F)c(C(=O)OC)c(CC(C)C)c1C(=O)OC [Compound 83, 3,5-pyridinedicarboxylic acid, 4-(2-methylpropyl)-2-(2-propynyloxy)-6-(trifluoromethyl)-, dimethyl ester]	0 (0-24% inhibition)	0 (0-24% inhibition)	0 (0-24% inhibition)	2 (50-74% inhibition)	0 (0-24% inhibition)	1 (25-49% inhibition)	1 (25-49% inhibition)	–	0 (0-24% inhibition)	0 (0-24% inhibition)	0 (0-24% inhibition)
CCOc1nc(C(F)(F)F)c(C(=O)OC)c(CC(C)C)c1C(=O)SC [Compound 8, 3-pyridinecarboxylic acid, 6-ethoxy-4-(2-methylpropyl)-5-[(methylthio)carbonyl]-2-(trifluoromethyl)-, methyl ester]	0 (0-24% inhibition)	0 (0-24% inhibition)	0 (0-24% inhibition)	0 (0-24% inhibition)	0 (0-24% inhibition)	0 (0-24% inhibition)	0 (0-24% inhibition)	–	0 (0-24% inhibition)	0 (0-24% inhibition)	0 (0-24% inhibition)
CCOc1nc(C(F)(F)F)c(C(=O)SC)c(CC(C)C)c1C(=O)SC [Compound 19, 3,5-pyridinedicarbothioic acid, 2-ethoxy-4-(2-methylpropyl)-6-(trifluoromethyl)-, S,S-dimethyl ester]	0 (0-24% inhibition)	0 (0-24% inhibition)	0 (0-24% inhibition)	0 (0-24% inhibition)	0 (0-24% inhibition)	0 (0-24% inhibition)	0 (0-24% inhibition)	0 (0-24% inhibition)	1 (25-49% inhibition)	–	0 (0-24% inhibition)
CCOc1nc(C(F)(F)F)c(C(=O)OC)c(CC(C)C)c1C(=O)N(C)C [Compound 17, 3-pyridinecarboxylic acid, 5-[(dimethylamino)carbony]-6-ethoxy-4-(2-methylpropyl)-2-(trifluoromethyl)-, methyl ester]	0 (0-24% inhibition)	0 (0-24% inhibition)	1 (25-49% inhibition)	0 (0-24% inhibition)	0 (0-24% inhibition)	0 (0-24% inhibition)	0 (0-24% inhibition)	–	0 (0-24% inhibition)	0 (0-24% inhibition)	0 (0-24% inhibition)
C=CCOc1nc(C(F)(F)F)c(C(=O)OC)c(CC(C)C)c1C(=O)OCC [Compound 23, 3,5-pyridinecarboxylic acid, 4-(2-methy1-propyl)-2-(2-propenyloxy)-6-(trifluoromethyl)-, 3-ethyl 5-methyl ester, hydrate (1:0.3)]	0 (0-24% inhibition)	0 (0-24% inhibition)	0 (0-24% inhibition)	0 (0-24% inhibition)	0 (0-24% inhibition)	0 (0-24% inhibition)	0 (0-24% inhibition)	–	1 (25-49% inhibition)	–	0 (0-24% inhibition)
COC(=O)c1c(OC)nc(C(F)(F)F)c(C(=O)Cl)c1CC(C)C [Compound 84, 3-pyridinecarboxylic acid, 5-(chlorocarbonyl)-2-methoxy-4-(2-methylpropyl)-6-(trifluoromethyl)-, methyl ester]	–	0 (0-24% inhibition)	0 (0-24% inhibition)	0 (0-24% inhibition)	0 (0-24% inhibition)	0 (0-24% inhibition)	0 (0-24% inhibition)	0 (0-24% inhibition)	0 (0-24% inhibition)	0 (0-24% inhibition)	0 (0-24% inhibition)
